Measured values from the supplement of paper PMC8728848.
The list shows a part of the results.

Tests used:
Assay in all cases: glycan array binding signal (z-score within array); higher = stronger binding
Details in all cases: glycan notation: IUPAC condensed, linker removed
Gal(a1-6)Glc = molecular target: Gal(a1-6)Glc
In short: (§1)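 Glycan array binding is given as a within-array Z-score, which can be read as non-binding when negative. The arrays, 3228 of them, came from the Consortium for Functional Glycomics database and were retained only where the protein sequence was available. Z-scores were averaged across arrays of the same protein sequence at different concentrations or buffers and across linkers.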

Gal(b1-2)Gal = molecular target: Gal(b1-2)Gal
In short: as §1

Gal(b1-3)Gal = molecular target: Gal(b1-3)Gal
In short: as §1

Gal(b1-3)Gal(b1-4)GlcNAc = molecular target: Gal(b1-3)Gal(b1-4)GlcNAc
In short: as §1

Gal(b1-3)GalNAc = molecular target: Gal(b1-3)GalNAc
In short: as §1

[1] = molecular target: Gal(b1-3)GalNAc(a1-3)[Fuc(a1-2)]Gal(b1-4)Glc
In short: as §1

[2] = molecular target: Gal(b1-3)GalNAc(a1-3)[Fuc(a1-2)]Gal(b1-4)GlcNAc
In short: as §1

Gal(b1-3)GalNAc(b1-3)Gal = molecular target: Gal(b1-3)GalNAc(b1-3)Gal
In short: as §1

[3] = molecular target: Gal(b1-3)GalNAc(b1-3)Gal(a1-4)Gal(b1-4)Glc
In short: as §1

[4] = molecular target: Gal(b1-3)GalNAc(b1-4)Gal(b1-4)Glc
In short: as §1

[5] = molecular target: Gal(b1-3)GalNAc(b1-4)[Neu5Ac(a2-3)]Gal(b1-4)Glc
In short: as §1

Gal(b1-3)GlcNAc = molecular target: Gal(b1-3)GlcNAc
In short: as §1

[6] = molecular target: Gal(b1-3)GlcNAc(a1-3)Gal(b1-4)GlcNAc
In short: as §1

[7] = molecular target: Gal(b1-3)GlcNAc(a1-6)Gal(b1-4)GlcNAc
In short: as §1

Gal(b1-3)GlcNAc(b1-2)Man = molecular target: Gal(b1-3)GlcNAc(b1-2)Man
In short: as §1

[8] = molecular target: Gal(b1-3)GlcNAc(b1-2)Man(a1-3)[Gal(b1-3)GlcNAc(b1-2)Man(a1-6)]Man(b1-4)GlcNAc(b1-4)GlcNAc
In short: as §1

[9] = molecular target: Gal(b1-3)GlcNAc(b1-2)Man(a1-3)[Gal(b1-3)GlcNAc(b1-2)Man(a1-6)]Man(b1-4)GlcNAc(b1-4)[Fuc(a1-6)]GlcNAc
In short: as §1

[10] = molecular target: Gal(b1-3)GlcNAc(b1-2)Man(a1-3)[GlcNAc(b1-4)][Gal(b1-3)GlcNAc(b1-2)Man(a1-6)]Man(b1-4)GlcNAc(b1-4)GlcNAc
In short: as §1

[11] = molecular target: Gal(b1-3)GlcNAc(b1-2)[Gal(b1-3)GlcNAc(b1-6)]Man(a1-6)[Gal(b1-3)GlcNAc(b1-2)Man(a1-3)]Man(b1-4)GlcNAc(b1-4)GlcNAc
In short: as §1

[12] = molecular target: Gal(b1-3)GlcNAc(b1-3)Gal(b1-3)GlcNAc
In short: as §1

[13] = molecular target: Gal(b1-3)GlcNAc(b1-3)Gal(b1-4)Glc
In short: as §1

[14] = molecular target: Gal(b1-3)GlcNAc(b1-3)Gal(b1-4)GlcNAc
In short: as §1

[15] = molecular target: Gal(b1-3)GlcNAc(b1-3)Gal(b1-4)GlcNAc(b1-2)Man(a1-3)[Gal(b1-3)GlcNAc(b1-3)Gal(b1-4)GlcNAc(b1-2)Man(a1-6)]Man(b1-4)GlcNAc(b1-4)GlcNAc
In short: as §1

[16] = molecular target: Gal(b1-3)GlcNAc(b1-3)Gal(b1-4)GlcNAc(b1-2)[Gal(b1-3)GlcNAc(b1-3)Gal(b1-4)GlcNAc(b1-6)]Man(a1-6)[Gal(b1-3)GlcNAc(b1-3)Gal(b1-4)GlcNAc(b1-2)Man(a1-3)]Man(b1-4)GlcNAc(b1-4)[Fuc(a1-6)]GlcNAc
In short: as §1

[17] = molecular target: Gal(b1-3)GlcNAc(b1-3)Gal(b1-4)GlcNAc(b1-3)Gal(b1-4)GlcNAc(b1-2)[Gal(b1-3)GlcNAc(b1-3)Gal(b1-4)GlcNAc(b1-3)Gal(b1-4)GlcNAc(b1-6)]Man(a1-6)[Gal(b1-3)GlcNAc(b1-3)Gal(b1-4)GlcNAc(b1-3)Gal(b1-4)GlcNAc(b1-2)Man(a1-3)]Man(b1-4)GlcNAc(b1-4)[Fuc(a1-6)]GlcNAc
In short: as §1

[18] = molecular target: Gal(b1-3)GlcNAc(b1-3)Gal(b1-4)GlcNAc(b1-6)[Gal(b1-3)GlcNAc(b1-3)]Gal(b1-4)Glc
In short: as §1

[19] = molecular target: Gal(b1-3)GlcNAc(b1-3)Gal(b1-4)[Fuc(a1-3)]GlcNAc
In short: as §1

[20] = molecular target: Gal(b1-3)GlcNAc(b1-3)Gal(b1-4)[Fuc(a1-3)]GlcNAc(b1-6)[Gal(b1-3)GlcNAc(b1-3)]Gal(b1-4)Glc
In short: as §1

[21] = molecular target: Gal(b1-3)GlcNAc(b1-3)GalNAc
In short: as §1

[22] = molecular target: Gal(b1-3)GlcNAc(b1-6)Gal(b1-4)GlcNAc
In short: as §1

[23] = molecular target: Gal(b1-3)GlcNAc(b1-6)GalNAc
In short: as §1

[24] = molecular target: Gal(b1-3)GlcNAc(b1-6)[Gal(b1-3)]GalNAc
In short: as §1

Gal(b1-3)GlcNAc6S = molecular target: Gal(b1-3)GlcNAc6S
In short: as §1

[25] = molecular target: Gal(b1-3)[Fuc(a1-4)]GlcNAc
In short: as §1

[26] = molecular target: Gal(b1-3)[Fuc(a1-4)]GlcNAc(b1-2)Man
In short: as §1

[27] = molecular target: Gal(b1-3)[Fuc(a1-4)]GlcNAc(b1-2)Man(a1-3)[Gal(b1-3)[Fuc(a1-4)]GlcNAc(b1-2)Man(a1-6)]Man(b1-4)GlcNAc(b1-4)[Fuc(a1-6)]GlcNAc
In short: as §1

[28] = molecular target: Gal(b1-3)[Fuc(a1-4)]GlcNAc(b1-3)Gal(b1-3)[Fuc(a1-4)]GlcNAc
In short: as §1

B1: Siglec-9 (Homo sapiens), Q9Y336 (protein)
chain: MLLLLLPLLWGRERAEGQTSKLLTMQSSVTVQEGLCVHVPCSFSYPSHGWIYPGPVVHGYWFREGANTDQDAPVATNNPARAVWEETRDRFHLLGDPHTKNCTLSIRDARRSDAGRYFFRMEKGSIKWNYKHHRLSVNVTALTHRPNILIPGTLESGCPQNLTCSVPWACEQGTPPMISWIGTSVSPLDPSTTRSSVLTLIPQPQDHGTSLTCQVTFPGASVTTNKTVHLNVSYPPQNLTMTVFQGDGTVSTVLGNGSSLSLPEGQSLRLVCAVDAVDSNPPARLSLSWRGLTLCPSQPSNPGVLELPWVHLRDAAEFTCRAQNPLGSQQVYLNVSLQSKATSGVTQGVVGGAGATALVFLSFCVIFVVVRSCRKKSARPAAGVGDTGIEDANAVRGSASQGPLTEPWAEDSPPDQPPPASARSSVGEGELQYASLSFQMVKPWDSRGQEATDTEYSEIKIHR
Gal(a1-6)Glc
  glycan array binding signal (z-score): -0.251
Gal(b1-2)Gal
  glycan array binding signal (z-score): -0.096
Gal(b1-3)Gal
  glycan array binding signal (z-score): -0.096
Gal(b1-3)Gal(b1-4)GlcNAc
  glycan array binding signal (z-score): -0.25
Gal(b1-3)GalNAc
  glycan array binding signal (z-score): -0.217
[1]
  glycan array binding signal (z-score): -0.434
[2]
  glycan array binding signal (z-score): -0.07
Gal(b1-3)GalNAc(b1-3)Gal
  glycan array binding signal (z-score): -0.078
[3]
  glycan array binding signal (z-score): -0.101
[4]
  glycan array binding signal (z-score): -0.369
[5]
  glycan array binding signal (z-score): -0.094
Gal(b1-3)GlcNAc
  glycan array binding signal (z-score): -0.23
[6]
  glycan array binding signal (z-score): 0.042
[7]
  glycan array binding signal (z-score): -0.175
Gal(b1-3)GlcNAc(b1-2)Man
  glycan array binding signal (z-score): -0.087
[8]
  glycan array binding signal (z-score): -0.172
[9]
  glycan array binding signal (z-score): 0.046
[10]
  glycan array binding signal (z-score): -0.183
[11]
  glycan array binding signal (z-score): -0.043
[12]
  glycan array binding signal (z-score): -0.277
[13]
  glycan array binding signal (z-score): -0.104
[14]
  glycan array binding signal (z-score): -0.334
[15]
  glycan array binding signal (z-score): -0.258
[16]
  glycan array binding signal (z-score): 0.095
[17]
  glycan array binding signal (z-score): 0.579
[18]
  glycan array binding signal (z-score): -0.039
[19]
  glycan array binding signal (z-score): -0.296
[20]
  glycan array binding signal (z-score): -0.134
[21]
  glycan array binding signal (z-score): -0.341
[22]
  glycan array binding signal (z-score): -0.183
[23]
  glycan array binding signal (z-score): -0.25
[24]
  glycan array binding signal (z-score): -0.129
Gal(b1-3)GlcNAc6S
  glycan array binding signal (z-score): -0.18
[25]
  glycan array binding signal (z-score): -0.086
[26]
  glycan array binding signal (z-score): 0.034
[27]
  glycan array binding signal (z-score): -0.209
[28]
  glycan array binding signal (z-score): -0.152
